From the supplement of paper PMC3334620
Over roughly 33,000 sequences, “E-score (-0.5 to 0.5)” has its median near -0.056; the highest 2% begin near 0.38. The list shows a part of the results.

Target: Stb4 (UniProt P50104)
Assay: PBM E-score (8-mer binding enrichment) (E-score (-0.5 to 0.5)); higher = stronger / more preferred TF binding; most listed sequences are background and not binding sites
Conditions: protein concentration: 200 nM; construct: GST-DNA-binding domain
Method in brief: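 Bound GST-tagged yeast transcription factors, applied at about 100-200 nM to double-stranded universal all-10-mer Agilent arrays, were detected with fluorescent anti-GST. Scans were normalised with masliner. A modified Wilcoxon-Mann-Whitney statistic, the E-score, was assigned to each ungapped eight-base word pooled with its reverse complement by the Universal PBM Analysis Suite.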

Sequence	PBM E-score
TCCATAGA	-0.0576
GTACACTA	-0.208
CCTGCCGA	0.359
CTATGGCC	-0.223
CCCGAGGC	0.388
ATGCCAAG	-0.177
ACGGGTTA	-0.041
CCAACTCG	0.0513
CCCTGGAA	-0.118
AGCACGGA	0.209
CGTTGTCC	0.0365
ACACACCC	0.254
ACGTATCC	0.0505
TGGATAAA	0.027
CCCGGGAC	0.387
CTTGTGTC	-0.159
TCACAAAA	0.115
CACATGGC	0.00518
GATTAAAA	0.0553
AGAAGACC	-0.103
AGGTTCAT	-0.128
CGTAACTC	-0.0106
CCGCGTGC	0.119
CATACCAC	0.0105
AGTCGCGA	-0.0992

Sequence	PBM E-score
TAGTGTGA	-0.167
AGCTATCC	0.189
CTACACGC	-0.183
CTGTACTA	-0.0226
ACAAATGG	-0.293
AAGTTACA	-0.223
ACTTACTA	-0.187
ATACCCCA	0.0396
CTTTCTAA	0.00201
AAATCCCT	-0.178
CAAGATCA	-0.183
ACCCCACC	0.289
AGGATCAA	0.0557
ATAATCTG	-0.159
CGACTCAG	0.0507
GTCGTTGA	-0.145
CCATTAGG	-0.324
GGCGGCCC	-0.0498
AACATTCA	-0.00804
CGAACGAG	0.0473
CGAGAGAG	0.116
AATACGAC	-0.114
AATCTGGA	-0.059
AGCGGCTC	0.207
CCGGATAC	0.409

Sequence	PBM E-score
AATACATC	0.111
GGCCATAA	-0.083
CGGACCGA	0.419
CCTTAAAC	-0.0937
CACCGCGG	0.207
ACCTCACA	-0.0391
ACCTCGAG	-0.0838
CATTATTA	0.0199
GCAAGGTA	-0.143
GGATACAA	0.2
CCTATGAA	-0.165
CAGCCCCA	-0.286
GAGTCTCA	-0.0337
AGACATTA	0.00299
TGGGGACA	-0.326
CAAAGGCG	-0.177
ATTGTGAA	-0.11
ATTTGTGC	-0.117
CCACCTGG	-0.328
CGTGGTAA	-0.189
ATGTTTCG	0.2
CCCTTGAA	0.0809
ATCCACCG	0.0768
ACCGCTAT	-0.039
TAAGGAGA	-0.177

Sequence	PBM E-score
AACCCCTA	-0.303
GCCAGCGC	-0.101
ACAATTAC	-0.12
TCTAAGAA	0.0163
ACTCGTAG	-0.202
AGACCGCG	-0.0609
AGAGATAG	-0.0326
GCCGGGCA	0.174
ATACTTGA	-0.326
AAGGTACG	-0.0106
ACTTTGGG	-0.0552
GTGAATGA	-0.0497
CAGACTGC	-0.294
AGAGCCTG	-0.237
GCAATGCA	-0.0224
ACTGGTTG	0.0369
GAAAATGC	-0.127
AGTCAGAC	-0.208
ATCAACGG	0.0758
CCTATCAG	-0.123
CAGATACC	0.0284
AGCCGATC	0.313
AATGAATG	-0.0478
CCTCGGTC	0.215
CTTAGAAC	-0.0637

Sequence	PBM E-score
CATTAGAG	-0.22
AGACTCAA	-0.0784
CTAAAACA	-0.159
ATGTCGAA	-0.0741
CATCCGGA	0.406
ACCCACCA	-0.126
TACACTCA	-0.0369
GGGGCGGA	0.294
ATTCCCGA	0.451
ACGTTTAC	0.00196
AATTAAAA	0.0995
CATACACA	-0.234
TGTTTTAA	-0.0422
CGAATGGA	-0.00795
CGATATGC	0.0903
GGTTCTAA	0.154
CATTACAC	-0.128
CCTCTTTC	0.0261
CAGTTTGG	-0.138
GCGTGAGC	-0.0394
GTCCACCA	-0.177
AGTAGTCC	0.13
ACCACGAT	-0.31
GCTCGTGA	-0.108
AATTCTTC	0.00684

Sequence	PBM E-score
CTCTAGTA	-0.18
CTCTAACA	-0.114
CATTCTGG	-0.122
CTGAAGGA	-0.153
AAGTGGCG	0.0121
CTGGCCGC	-0.226
CTCAGTAA	-0.214
GAATAAGA	0.117
CTTGGTGA	-0.0851
CCTGAGTA	-0.224
AATTAAGC	0.0738
AAATGCTG	-0.227
AGCGATGG	-0.0938
CATTTCGA	-0.101
GAGCGGGA	0.18
TCATTGAA	-0.163
CTGGAATC	0.0452
GGGCACAC	-0.0902
CACAGGCC	-0.0324
AACTATGC	0.0882
CTTTAACC	-0.00268
AAGCCAAA	-0.0671
ACGTTGAG	-0.161
CCGGAAGG	0.392
TAGAATAA	-0.0837

Sequence	PBM E-score
CATAGCCC	-0.134
ATAAACTG	0.0204
AAATTATA	0.104
CATCTGGC	-0.0988
CATCGTGC	-0.257
AACCGTCG	0.214
CCTATGCG	0.00696
ATCCCGCA	0.0648
GTCCTTGA	-0.136
AAAAGCGA	0.0415
AACCCCCC	-0.264
ATGCCCCC	-0.203
CGCAGAGC	-0.176
CTAACTGC	-0.0992
GCATCTTA	-0.0588
ACCCTTTA	-0.116
CAATATCG	-0.0235
ACGGCAAA	0.243
AGCCCCCC	-0.102
GCTTAGGA	-0.152
ATTATAAG	-0.0991
CCATTACA	0.00492
CGGAGCCA	0.201
GAGGGCAC	0.00272
GTACTAAC	0.0366

Sequence	PBM E-score
CATCAAGG	-0.242
CCAATTAC	-0.151
GACCACAA	0.0537
GTCGCTGA	-0.156
AATGGTAG	-0.228
ACATACAG	-0.116
GAGACTAC	0.0364
AAGACTGA	-0.25
CCGAAAAC	0.41
ACCTACAG	-0.0914
CTCCGTGA	0.133
CACTAGTA	-0.196
GACTTACA	-0.0902
GCGGTGCC	-0.0706
GATGCCTA	-0.127
CAGTGGGG	-0.161
GAGGAAAC	0.058
ACCAGGCC	-0.0604
TAAATCGA	-0.211
CCCGCTAA	0.116
AACAGATA	0.00832
ACCTATAA	-0.13
ATCGAGTC	-0.196
CTGCTGTC	-0.0903
ATCCGACA	0.442

Sequence	PBM E-score
CACCACAC	-0.0841
CGTGACAG	-0.0186
CCGAAGCA	0.35
CAACATTG	-0.00255
AGCGCGGG	0.169
CATGTAGA	-0.184
ATCTGCAC	-0.0633
GCTGGATA	-0.0787
GACTTTCC	0.0712
AGACGATG	-0.065
GATGCCAC	-0.0531
ACCTTAAC	0.0163
AGTTTCGC	0.0157
GGTGTATA	-0.0247
AACCGTCC	0.144
ATTAAGAG	-0.021
ACCAGCCC	0.135
CGATTGAC	-0.238
ATACGGGA	0.237
ACCCGACA	0.402
CCTATATA	-0.103
ACGCCAGA	-0.077
CAAGCTAA	-0.19
AGACTCCG	0.124
CGCGGTGC	-0.142

Sequence	PBM E-score
ATCCACAT	-0.00034
AGGGGAGG	0.117
AAACAGTG	-0.16
CAACTTCG	-0.0637
AATATTTG	-0.0677
AGCGTCCA	-0.199
CTTCCTGA	-0.00442
GCGTCCTA	-0.227
CCCGGCCG	0.287
GGGTACCC	0.211
CAAAGCCA	-0.265
CATACATC	0.0283
AATACTGG	-0.159
CCCAGCAC	-0.154
CATATCAG	-0.156
GATTGCGA	0.217
CGGTTGAC	0.264
AGATTCTG	-0.129
CGTAAAGA	-0.0382
CTGCTAGA	-0.115
CAGACCCA	-0.207
ACAACACG	-0.0121
TTAGGCAA	-0.328
CCATACGG	0.135
AATTACAA	-0.295

Sequence	PBM E-score
AGATTTAT	0.183
GGGGACGA	-0.0717
AACATAAA	-0.0944
GGGATGCA	0.00455
ACAATCTA	-0.0973
GCTTAGCC	0.145
CATCTGGG	-0.248
CGCACACC	0.0525
ACGGCTTA	0.169
ATCTACCG	0.267
AACTAGAG	-0.273
TGACTGAA	-0.15
AGACACGA	-0.171
ACTAGAGG	-0.127
ATCACTCA	-0.114
GGGAGCGA	0.00915
GATCTAAA	0.138
GATACTCA	0.0843
GACTCGCC	-0.137
CCGAGTGA	0.338
CACCCGAA	0.436
AATGCCGA	0.415
GTCGTCGA	-0.221
AGCGCCGC	0.00426
GGCGAAAA	0.0268

Sequence	PBM E-score
AGCAGAGA	-0.208
ACGAAATG	-0.0746
GAAGTCCA	0.0735
GCATTTAA	0.126
CCATCGCG	0.0831
CCGAGCAC	0.413
AGAAGGCA	-0.217
TAACTATA	-0.232
GCGGCAGC	0.103
GCCCAGGA	-0.0894
AATCGAAT	0.00368
GACTAGCA	-0.114
CTTTAGAA	0.0773
ACGTAGGA	-0.123
ACGCTGTA	-0.113
CTATAATC	-0.152
CTGCCGCA	0.0287
AAACTTCT	0.067
GGCAAGCC	-0.0599
AATTTGTG	0.0806
AAGGACAA	-0.028
CTGGGACA	-0.154
AACGCACT	-0.13
CCGGCTAA	0.342
GTAGCGCA	-0.0646

Sequence	PBM E-score
GCGTATTA	-0.149
TAGCGCAA	-0.129
ACGGTCTC	0.0218
AGTACGCC	-0.193
GGGTAGTA	0.111
CACATCAG	-0.209
ATTAGTCG	0.00325
ACTCCCTA	-0.257
CGGCTTAG	0.228
CCTAACAC	0.00789
GGACACAA	-0.0182
CAGTCGCG	-0.138
CCTACCAC	-0.122
ATAGCGGG	0.0172
CATCATAG	-0.0401
ACGCAGTA	-0.0773
GGATGTCA	0.171
CTCTGCTA	-0.0729
CCGTGAGA	0.0732
ATGCTCAA	-0.123
CACGTTTC	0.0107
ATCACTGG	-0.216
ATCTTGCG	-0.0404
ACTTAAAT	-0.0736
ACTGTAAG	0.0163

Sequence	PBM E-score
TCGTAGCA	-0.272
GTGTTAAC	-0.135
CGCCCACC	-0.146
TATAGTGA	-0.195
GGAGAGAC	0.0549
ATAAAGAT	0.00558
ACTTAGAC	-0.0631
GCCCTACA	-0.0666
AGCTTGTA	-0.288
ATGGGAAC	-0.0551
ATTCCGAA	0.464
CCCTATCG	0.024
ACTTAGTC	-0.0955
CACGGAAC	0.352
AGAAAGGC	-0.256
CGTATAGA	-0.136
TCTAGCAA	-0.0809
CGTCCTTC	-0.0205
GCATCTAA	0.0827
